Results are given in words; binding and its absence hold for the method and conditions named. In cells and extracts the contact can be indirect. Some entries that bind do so weakly or less than the wild type. For some assays here: Where a sequence is shown, tags or fusion partners need not be part of it.
Key:
[1] = biological target: T1, 3xFLAG-ZNFX1-580-1260 (P-loop domain of ZNFX1) (UniProt Q9P2E3); assay: co-IP; 3xFLAG-tagged and HA-tagged proteins co-expressed in HEK293T; lysis buffer 50 mM Tris-HCl pH 7.4, 150 mM NaCl, 0.5% Triton X-100; FLAG-M2 agarose beads 4 h at 4 C; blots with anti-FLAG and anti-HA
T1 sequence: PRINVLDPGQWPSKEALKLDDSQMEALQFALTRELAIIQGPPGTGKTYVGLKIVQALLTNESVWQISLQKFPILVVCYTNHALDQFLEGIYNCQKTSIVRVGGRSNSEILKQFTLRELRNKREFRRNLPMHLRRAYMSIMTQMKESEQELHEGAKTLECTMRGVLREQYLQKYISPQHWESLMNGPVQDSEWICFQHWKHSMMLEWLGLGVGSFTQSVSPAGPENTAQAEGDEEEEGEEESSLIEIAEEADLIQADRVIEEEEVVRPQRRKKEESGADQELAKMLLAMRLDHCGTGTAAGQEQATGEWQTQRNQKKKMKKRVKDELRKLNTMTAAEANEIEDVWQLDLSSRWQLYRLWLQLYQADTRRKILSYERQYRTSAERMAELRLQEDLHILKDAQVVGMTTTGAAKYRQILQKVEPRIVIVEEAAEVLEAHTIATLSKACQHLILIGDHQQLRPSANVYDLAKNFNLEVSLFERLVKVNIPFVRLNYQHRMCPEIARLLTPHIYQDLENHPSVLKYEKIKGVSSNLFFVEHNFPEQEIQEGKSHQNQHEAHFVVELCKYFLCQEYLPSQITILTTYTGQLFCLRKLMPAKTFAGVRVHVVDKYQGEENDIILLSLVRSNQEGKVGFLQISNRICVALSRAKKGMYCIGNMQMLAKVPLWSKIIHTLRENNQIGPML

The chains behind the UniProt entries cited, without tags or fusion partners. Where a name states a change or a piece, a line headed by the entry shows the natural chain unless it says otherwise. Residues count along the entry.
UniProt Q9ULZ3: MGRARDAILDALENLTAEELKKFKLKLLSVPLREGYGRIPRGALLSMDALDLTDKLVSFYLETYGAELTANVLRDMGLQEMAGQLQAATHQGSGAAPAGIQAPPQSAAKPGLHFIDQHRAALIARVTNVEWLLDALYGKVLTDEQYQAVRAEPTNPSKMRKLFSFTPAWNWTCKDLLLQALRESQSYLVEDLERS
UniProt P29466: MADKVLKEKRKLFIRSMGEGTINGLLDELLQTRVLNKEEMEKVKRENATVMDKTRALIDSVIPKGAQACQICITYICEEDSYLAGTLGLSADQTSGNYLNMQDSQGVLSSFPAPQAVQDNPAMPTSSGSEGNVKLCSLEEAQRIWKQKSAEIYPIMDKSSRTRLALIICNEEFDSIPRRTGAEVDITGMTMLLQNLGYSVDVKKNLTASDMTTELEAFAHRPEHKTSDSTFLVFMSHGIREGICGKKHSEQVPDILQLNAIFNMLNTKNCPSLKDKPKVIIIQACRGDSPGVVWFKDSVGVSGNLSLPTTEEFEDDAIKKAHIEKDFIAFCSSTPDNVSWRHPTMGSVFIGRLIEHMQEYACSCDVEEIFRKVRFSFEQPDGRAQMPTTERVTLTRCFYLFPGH
UniProt Q96P20: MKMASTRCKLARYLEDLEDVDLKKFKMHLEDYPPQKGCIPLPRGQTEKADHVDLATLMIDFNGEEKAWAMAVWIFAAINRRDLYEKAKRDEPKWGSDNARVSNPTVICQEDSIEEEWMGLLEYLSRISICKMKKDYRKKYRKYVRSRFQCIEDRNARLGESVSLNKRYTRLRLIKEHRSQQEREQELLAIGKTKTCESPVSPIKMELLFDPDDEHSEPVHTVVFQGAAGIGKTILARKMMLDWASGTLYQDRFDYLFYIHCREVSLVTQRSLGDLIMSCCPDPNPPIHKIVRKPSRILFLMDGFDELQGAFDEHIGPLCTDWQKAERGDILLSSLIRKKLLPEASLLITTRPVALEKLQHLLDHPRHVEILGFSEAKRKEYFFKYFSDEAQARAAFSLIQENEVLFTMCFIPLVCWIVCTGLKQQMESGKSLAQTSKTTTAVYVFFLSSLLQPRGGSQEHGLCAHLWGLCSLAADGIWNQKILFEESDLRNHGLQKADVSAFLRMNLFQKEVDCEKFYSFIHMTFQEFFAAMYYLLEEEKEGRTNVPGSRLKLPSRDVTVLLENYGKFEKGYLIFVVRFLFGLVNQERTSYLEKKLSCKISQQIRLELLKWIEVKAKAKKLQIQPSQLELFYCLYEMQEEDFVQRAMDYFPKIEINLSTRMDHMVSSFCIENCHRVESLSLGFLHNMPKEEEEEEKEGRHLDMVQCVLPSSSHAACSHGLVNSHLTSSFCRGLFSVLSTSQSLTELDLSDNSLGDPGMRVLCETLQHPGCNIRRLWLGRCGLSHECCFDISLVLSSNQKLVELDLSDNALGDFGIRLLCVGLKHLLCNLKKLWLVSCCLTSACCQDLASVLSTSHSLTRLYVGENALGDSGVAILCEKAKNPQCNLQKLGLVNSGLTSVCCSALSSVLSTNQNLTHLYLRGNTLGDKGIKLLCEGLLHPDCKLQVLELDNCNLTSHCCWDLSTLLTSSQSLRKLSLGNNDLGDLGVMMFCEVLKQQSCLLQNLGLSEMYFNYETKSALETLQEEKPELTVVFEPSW
3xFLAG-mEGFP-NLRP3-742-1036 (LRR domain of NLRP3): residues 742-1036 of Q96P20
UniProt Q8R4B8: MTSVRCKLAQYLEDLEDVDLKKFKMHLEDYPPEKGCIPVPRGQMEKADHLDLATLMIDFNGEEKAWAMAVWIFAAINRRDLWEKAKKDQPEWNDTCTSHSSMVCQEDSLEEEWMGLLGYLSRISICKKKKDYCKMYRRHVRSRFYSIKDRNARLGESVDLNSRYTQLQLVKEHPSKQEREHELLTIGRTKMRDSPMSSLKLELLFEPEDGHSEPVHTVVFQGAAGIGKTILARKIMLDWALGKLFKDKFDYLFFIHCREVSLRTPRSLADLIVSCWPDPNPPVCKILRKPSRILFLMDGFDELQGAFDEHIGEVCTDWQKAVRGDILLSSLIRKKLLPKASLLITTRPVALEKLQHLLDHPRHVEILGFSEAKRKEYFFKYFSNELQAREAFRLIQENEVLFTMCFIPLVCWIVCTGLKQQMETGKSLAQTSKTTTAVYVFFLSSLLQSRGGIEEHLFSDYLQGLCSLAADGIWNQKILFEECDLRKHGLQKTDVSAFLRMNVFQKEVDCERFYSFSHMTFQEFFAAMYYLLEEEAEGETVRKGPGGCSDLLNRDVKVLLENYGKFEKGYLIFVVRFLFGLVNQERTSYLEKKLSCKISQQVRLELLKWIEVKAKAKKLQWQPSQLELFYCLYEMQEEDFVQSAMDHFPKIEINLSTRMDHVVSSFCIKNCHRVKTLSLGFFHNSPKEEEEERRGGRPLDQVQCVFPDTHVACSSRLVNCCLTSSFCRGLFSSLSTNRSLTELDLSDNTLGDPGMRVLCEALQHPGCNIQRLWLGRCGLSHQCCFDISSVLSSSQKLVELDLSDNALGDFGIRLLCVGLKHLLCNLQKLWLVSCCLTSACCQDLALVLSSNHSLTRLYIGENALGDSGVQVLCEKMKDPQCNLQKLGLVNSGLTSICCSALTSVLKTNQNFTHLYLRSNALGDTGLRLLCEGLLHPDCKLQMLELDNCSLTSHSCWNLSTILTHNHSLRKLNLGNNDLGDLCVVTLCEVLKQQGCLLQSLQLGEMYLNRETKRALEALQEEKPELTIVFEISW
UniProt Q8R151: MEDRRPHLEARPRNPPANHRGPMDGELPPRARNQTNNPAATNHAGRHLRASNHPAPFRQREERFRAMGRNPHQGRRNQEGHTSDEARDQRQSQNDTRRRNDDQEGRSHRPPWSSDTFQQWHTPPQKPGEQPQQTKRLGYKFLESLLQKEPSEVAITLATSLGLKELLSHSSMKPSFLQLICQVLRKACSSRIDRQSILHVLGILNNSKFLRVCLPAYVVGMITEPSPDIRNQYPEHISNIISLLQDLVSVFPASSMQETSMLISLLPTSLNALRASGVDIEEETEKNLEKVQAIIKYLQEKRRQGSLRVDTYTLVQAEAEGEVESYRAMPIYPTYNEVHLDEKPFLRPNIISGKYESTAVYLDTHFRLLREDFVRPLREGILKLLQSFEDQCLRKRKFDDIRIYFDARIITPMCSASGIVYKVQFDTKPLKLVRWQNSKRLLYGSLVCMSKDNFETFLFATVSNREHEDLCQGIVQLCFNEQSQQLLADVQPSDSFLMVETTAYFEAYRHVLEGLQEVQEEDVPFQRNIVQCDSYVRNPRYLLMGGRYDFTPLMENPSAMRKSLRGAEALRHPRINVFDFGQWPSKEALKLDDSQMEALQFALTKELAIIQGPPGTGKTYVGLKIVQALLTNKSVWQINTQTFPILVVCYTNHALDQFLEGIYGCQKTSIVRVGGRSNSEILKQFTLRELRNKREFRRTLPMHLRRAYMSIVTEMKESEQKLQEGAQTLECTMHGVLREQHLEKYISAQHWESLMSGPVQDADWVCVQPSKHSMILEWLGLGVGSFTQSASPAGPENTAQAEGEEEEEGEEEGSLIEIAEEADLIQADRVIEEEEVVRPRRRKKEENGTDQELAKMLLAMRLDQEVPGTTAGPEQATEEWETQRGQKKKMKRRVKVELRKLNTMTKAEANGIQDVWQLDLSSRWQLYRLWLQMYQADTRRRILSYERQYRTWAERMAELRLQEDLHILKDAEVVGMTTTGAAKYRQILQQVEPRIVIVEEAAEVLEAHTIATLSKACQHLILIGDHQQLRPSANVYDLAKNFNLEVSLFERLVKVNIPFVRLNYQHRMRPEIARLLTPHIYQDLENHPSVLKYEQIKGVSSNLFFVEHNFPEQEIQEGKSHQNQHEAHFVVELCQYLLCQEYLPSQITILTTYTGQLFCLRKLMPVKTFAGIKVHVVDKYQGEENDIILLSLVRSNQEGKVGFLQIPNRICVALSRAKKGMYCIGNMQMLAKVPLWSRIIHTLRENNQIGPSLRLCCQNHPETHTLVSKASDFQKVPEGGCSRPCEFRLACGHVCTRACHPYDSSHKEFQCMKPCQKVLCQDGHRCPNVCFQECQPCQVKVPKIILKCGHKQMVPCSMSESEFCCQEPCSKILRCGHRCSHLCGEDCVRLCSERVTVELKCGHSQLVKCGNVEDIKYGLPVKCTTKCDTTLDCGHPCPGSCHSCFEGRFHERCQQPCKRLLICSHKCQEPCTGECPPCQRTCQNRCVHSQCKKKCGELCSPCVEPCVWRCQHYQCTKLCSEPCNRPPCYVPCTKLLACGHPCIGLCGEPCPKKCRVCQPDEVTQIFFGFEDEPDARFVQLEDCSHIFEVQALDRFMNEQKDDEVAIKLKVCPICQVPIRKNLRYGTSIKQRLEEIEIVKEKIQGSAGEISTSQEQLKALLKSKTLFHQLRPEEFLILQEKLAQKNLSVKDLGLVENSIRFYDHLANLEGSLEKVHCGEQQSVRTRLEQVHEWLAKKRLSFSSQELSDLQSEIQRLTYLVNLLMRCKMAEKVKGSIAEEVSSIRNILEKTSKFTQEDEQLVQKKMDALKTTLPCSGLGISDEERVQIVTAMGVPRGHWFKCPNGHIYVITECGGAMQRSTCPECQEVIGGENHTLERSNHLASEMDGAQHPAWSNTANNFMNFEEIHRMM

[2] = biological target: 3xFLAG-mEGFP-ASC, expressed in HEK293T (UniProt Q9ULZ3); assay: as above
[3] = biological target: 3xFLAG-mEGFP-caspase-1, expressed in HEK293T (UniProt P29466); assay: as above
[4] = biological target: 3xFLAG-mEGFP-NLRP3 (NLR family pyrin domain-containing protein 3), expressed in HEK293T (UniProt Q96P20); assay: as above
[5] = biological target: T2, 3xFLAG-mEGFP-AIM2, expressed in HEK293T (UniProt O14862); assay: as above
T2 sequence: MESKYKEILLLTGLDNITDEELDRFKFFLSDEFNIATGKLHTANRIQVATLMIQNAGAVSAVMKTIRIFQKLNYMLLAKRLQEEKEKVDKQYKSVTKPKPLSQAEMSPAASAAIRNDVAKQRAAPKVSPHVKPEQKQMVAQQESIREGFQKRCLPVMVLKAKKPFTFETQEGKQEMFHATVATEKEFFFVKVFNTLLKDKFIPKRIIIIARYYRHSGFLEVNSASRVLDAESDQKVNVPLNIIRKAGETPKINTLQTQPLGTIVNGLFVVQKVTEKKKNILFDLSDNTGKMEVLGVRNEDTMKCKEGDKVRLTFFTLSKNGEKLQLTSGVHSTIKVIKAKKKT

[6] = biological target: 3xFLAG-mEGFP-NLRP3-742-1036 (LRR domain of NLRP3) (UniProt Q96P20); assay: as above
[7] = biological target: 3xFLAG-mEGFP-ZNFX1 K625A (Walker A motif mutant) (UniProt Q9P2E3); assay: co-IP; co-immunoprecipitation of NLRP3 with WT or helicase mutants of ZNFX1; cells and beads not named in the legend
[8] = biological target: 3xFLAG-mEGFP-ZNFX1 E1007Q (Walker B motif mutant) (UniProt Q9P2E3); assay: as above
[9] = biological target: 3xFLAG-mEGFP-ZNFX1 R334Q, stably expressed in ZNFX1 KO THP-1 cells (UniProt Q9P2E3); assay: co-IP; ZNFX1 KO THP-1-derived macrophages rescued with WT or pathogenic alleles of ZNFX1; FLAG-M2 beads; endogenous NLRP3 blotted
[10] = biological target: 3xFLAG-mEGFP-ZNFX1 wild type, stably expressed in ZNFX1 KO THP-1 cells (UniProt Q9P2E3); assay: as above
[11] = biological target: 3xFLAG-mEGFP-ZNFX1 I1154T, stably expressed in ZNFX1 KO THP-1 cells (UniProt Q9P2E3); assay: as above
[12] = biological target: 3xFLAG-mEGFP-ZNFX1 L1051P, stably expressed in ZNFX1 KO THP-1 cells (UniProt Q9P2E3); assay: as above
[13] = biological target: NLRP3, endogenous in mouse iBMDM and primary BMDM (mouse (endogenous in iBMDM and BMDM)) (UniProt Q8R4B8); assay: co-IP; endogenous proteins; lysates of THP-1-derived macrophages, iBMDM (WT or Znfx1 KO) or primary BMDM, resting, LPS-primed or nigericin-treated; anti-NLRP3 (AdipoGen) or IgG control 4 h at 4 C, Protein A/G beads overnight
[14] = biological target: NLRP3, endogenous in THP-1-derived macrophages (human (endogenous in THP-1)) (UniProt Q96P20); assay: as above

For “HA-mCherry-NLRP3, expressed in HEK293T (from UniProt Q96P20 1-1036)”, the binding [1] was “binds”.
“HA-mCherry-ZNFX1, expressed in HEK293T (from UniProt Q9P2E3 1-1918)” was tested, and the binding [2] was “no binding”, the binding [3] was “no binding” and the binding [4] was “binds”. For the same substance, the binding [5] was “no binding” and the binding [6] was “binds”.
In the case of “NLRP3, endogenous in THP-1-derived macrophages (from UniProt Q96P20 1-1036)”, the binding [7] is reported as “no binding”, the binding [8] is reported as “no binding” and the binding [9] is reported as “no binding”. For the same substance, the binding [10] was “binds”, the binding [11] was “no binding” and the binding [12] was “no binding”.
With “ZNFX1, endogenous in mouse iBMDM and primary BMDM (from UniProt Q8R151 1-1909)” the binding [13] was “binds”.
For “ZNFX1, endogenous in THP-1-derived macrophages (from UniProt Q9P2E3 1-1918)”, the binding [14] was “binds”.
